SMILES strings stand for the structures. The campaign covered roughly 52,000 compounds. About 4,300 (8.3%) were called active. Rule as the data show it: active = survival mostly below about 52% (no sharp cut-off); inactive = mostly above about 56%. This is one part of the list.

This test relates to DeltatarO mutant. In words: S. aureus survival, RN4220 and DeltatarO strains – OD600, teichoic acid synthesis inhibitors, primary screen (AID 463173). The conditions noted are these: S. aureus RN4220 wild type/DeltatarO growth, OD600, 18 h, active compounds read low, screened at 18.75 µg/mL (by protocol).
With `CCCCc1nn2c(=O)cc(COC(=O)C(C)Oc3ccccc3)nc2s1` (configuration not stated), the survival was inactive: 82%.

With `Cc1c(C(=O)Nc2ccccc2Br)oc2ccc(S(=O)(=O)N3CCOCC3)cc12`, the survival was inactive: 97%.

Turning to `CCOC(=O)N1CCc2c(sc3c2c(=O)n(-c2ccc(CC)cc2)c(=O)n3CC(=O)c2ccccc2)C1`, the survival was inactive: 82%.

For the molecule `COc1ccc(NS(=O)(=O)c2ccc3c(c2)CCCN3C(=O)C2CCC2)cc1OC`, the survival is inactive: 105%.

In the case of `Cc1ccccc1OCC(=O)Nc1c(C)ccc2nsnc12`, the survival is inactive: 68%.

As to `CC(C)c1ccc(S(=O)(=O)c2nnn3c2nc(N2CCOCC2)c2sccc23)cc1`, the survival is inactive: 97%.

For the molecule `CC1CCN(S(=O)(=O)c2ccc3c(ccn3CC(=O)NCc3ccc(N(C)C)cc3)c2)CC1`, the survival is inactive: 77%.

Regarding `Cc1cc(C)n2ncc(C(=O)Nc3cccc(C(F)(F)F)c3)c2n1`, the survival is inactive: 90%.

Take `O=C(CSc1nnc(-c2ccncc2)n1-c1ccccc1)Nc1ccc(Br)cc1`: the survival was inactive: 73%.

As for `CCOc1cc(C)c(C(C)C)cc1S(=O)(=O)n1ccnc1CC`, the survival was active: -3%.

Consider `CCOc1ccc2nc(N3CCC(C(=O)Nc4ccc(Br)cc4F)CC3)sc2c1`, for which the survival was inactive: 81%.

With `COc1ccc2c(c1)CC(NC(=O)Nc1ccc(NC(C)=O)cc1)CO2` (configuration not stated), the survival was inactive: 117%.

As to `CC(C)CNC(=O)c1c(-c2ccccc2)c(-c2ccccc2)nn(C)c1=O`, the survival is inactive: 50%.

Regarding `Cc1ccccc1Cn1c(=O)n(CCCCC(=O)NCc2ccccc2Cl)c(=O)c2ccccc21`, the survival was inactive: 93%.

Regarding `O=C(NCc1ccccc1Cl)c1ccc(NC(=O)c2nsc3ccccc23)cc1`, the survival was inactive: 84%.

For `COc1ccccc1CNC(=O)C1CCN(Cc2cc3ccccc3n2Cc2cccc(C)c2)CC1`, the survival is inactive: 68%.

With `C[n+]1cccc(O)c1I`, the survival was inactive: 53%.

With `CCOC(=O)c1c(C)oc2nc(C)nc(NCCCN3CCN(c4cc(Cl)ccc4C)CC3)c12`, the survival is inactive: 83%.

As for `CCOC(=O)c1cccc(NC(=O)Nc2ccc3c(c2)N(C)C(=O)c2ccccc2S3)c1`, the survival was inactive: 92%.

On to `Cc1ccc(-c2noc(-c3nnn(CC(=O)Nc4cccc(C(F)(F)F)c4)c3N)n2)cc1`, for which the survival was inactive: 74%.

For the molecule `CCCNC(=O)c1c(NC(=O)c2ccc(C)cc2)sc2c1CCCCC2`, the survival was inactive: 65%.

Take `CC(=O)N1CCOc2cc(S(=O)(=O)Nc3cc(C(F)(F)F)ccc3Cl)c(C)cc21`: the survival is inactive: 94%.

For the molecule `O=C1S/C(=C/c2ccccc2)C(=O)N1CO`, the survival is inactive: 79%.

As for `O=S(=O)(NC1CCCC1)c1ccc(-n2cnnn2)cc1`, the survival is inactive: 94%.

In the case of `COc1ccc2c(c1)c1c(c(=O)n(Cc3ccccc3)c(=O)n1Cc1ccccc1)n2C`, the survival is active: -1%.

Turning to `CCOC(=O)Nc1cccc(C(=O)O)c1`, the survival is inactive: 71%.

With `CCSc1ncc(Cl)c(C(=O)N(Cc2ccc(C(C)(C)C)cc2)C2CCS(=O)(=O)C2)n1` (configuration not stated), the survival is active: 42%.

`O=C(O)c1cccnc1SCc1cccc(Cl)c1`: the survival was inactive: 79%.

As for `COc1ccc(S(=O)(=O)Cc2ccc(C(=O)N3CCN(c4cc(C)ccc4C)CC3)o2)cc1`, the survival was inactive: 130%.

Turning to `CS(=O)(=O)N1C(=O)CCC1=O`, the survival was inactive: 101%.

Turning to `O=C(Nc1cccc(-c2nc3ccccc3[nH]2)c1)c1c(F)cccc1F`, the survival is active: 37%.

Turning to `O=C(NN=C1CCCC1)c1cc(-c2ccccc2)n[nH]1`, the survival is inactive: 111%.

As to `O=C(NCCCN1CCN(c2ccccc2F)CC1)C1COc2ccccc2C1` (configuration not stated), the survival is inactive: 92%.

For `Cc1ccc(C(=O)NCC(=O)OCc2cc(=O)n3nc(C4CC4)sc3n2)cc1`, the survival was inactive: 68%.

Regarding `CCCS(=O)(=O)N1CCN(C(=O)COc2cccc(C)c2)CC1`, the survival was inactive: 78%.

On to `Clc1c(-c2nnc(-c3cccs3)o2)sc2ccccc12`, for which the survival is inactive: 59%.

`COc1cc(-c2nc3ccc(Cl)cn3c2Nc2ccc3c(c2)OCO3)ccc1O`: the survival is inactive: 65%.

On to `Cn1cc(-c2cc3n(n2)CCC(=O)N3CCCC(=O)Nc2ccccc2Cl)c2ccccc21`, for which the survival was active: -5%.

Take `Cc1ccccc1S(=O)(=O)Cc1ccc(C(=O)NCc2ccccc2Cl)o1`: the survival is inactive: 56%.

`Nc1nn(-c2ccccc2)nc1C(=O)OCc1ccccc1Br`: the survival was active: 11%.

In the case of `Cc1ccc(NC(=O)c2cc(CN3CCOCC3)on2)cc1Cl`, the survival was inactive: 119%.

On to `CC1=C(C(=O)Nc2ccc(C)cc2Cl)C2(CCCCC2)OC1=O`, for which the survival was inactive: 128%.

With `COc1cc2ccccc2cc1C(=O)Nc1cccc(-c2nc3ccccc3o2)c1`, the survival is active: 7%.

`COc1ccc(N2CCN(C(=O)c3cn(C)c4ccc(S(=O)(=O)N(C)C5CCCCC5)cc4c3=O)CC2)cc1`: the survival is inactive: 93%.

As to `COc1ccc(CNC(=O)C2CCN(S(=O)(=O)c3c(C)noc3/C=C/c3cccs3)CC2)cc1`, the survival is inactive: 93%.

With `Cc1ccc(NC(=O)c2c(C(=O)Nc3ccccc3)sc3nc(C)cc(=O)n23)cc1`, the survival was inactive: 59%.

With `CC(C(=O)NCc1cccc(Br)c1)n1ncn2cccc2c1=O` (configuration not stated), the survival was inactive: 69%.

Consider `Cc1ccccc1NC(=O)CCOc1ccccc1`, for which the survival was inactive: 65%.

In the case of `CCOC(=O)c1noc2ncn(CC(=O)Nc3cc(Cl)ccc3OC)c(=O)c12`, the survival is inactive: 92%.

In the case of `O=C(O)Cc1sc(Nc2ccc(C(=O)O)cc2)nc1-c1ccccc1`, the survival is inactive: 86%.

In the case of `COc1ccc2c(c1)CCc1c(C(=O)Nc3c(C)nn(Cc4c(Cl)cccc4Cl)c3C)noc1-2`, the survival was inactive: 114%.

For the molecule `CC(Sc1nc(-c2ccccc2)cc(C(F)(F)F)n1)C(=O)NN1CCCCC1` (configuration not stated), the survival was inactive: 72%.

Consider `Cc1cccc(NC(=O)CC2S/C(=N/c3nccs3)N(C)C2=O)c1` (configuration not stated), for which the survival was inactive: 90%.

On to `CCOC(=O)c1c(C)[nH]c(C)c1S(=O)(=O)NCC(=O)Nc1ccc(CC)cc1`, for which the survival was inactive: 96%.

Take `CCc1ccccc1NC(=O)c1cc2sc(Cl)cc2n1CC`: the survival was inactive: 77%.

As for `O=C(c1cccs1)c1cn(CCOc2ccc(F)cc2)c2ccccc12`, the survival is inactive: 128%.

`CCn1c(=O)c2sccc2n2c(CCC(=O)N3CCN(c4ccccc4OC)CC3)nnc12`: the survival is inactive: 136%.

`O=C(NCCCCc1ccccc1)c1nn(-c2ccccc2F)nc1CO`: the survival is inactive: 83%.

Consider `CC(C)OCCCn1c(SCC(N)=O)nc2c(sc3ccccc32)c1=O`, for which the survival was inactive: 92%.

Turning to `O=C(c1ccc(CS(=O)c2ccccc2Cl)o1)N1CCN(c2cccc(C(F)(F)F)c2)CC1` (configuration not stated), the survival is inactive: 60%.

Turning to `O=S1(=O)CCC(N2C(=S)SC3CS(=O)(=O)CC32)C1` (configuration not stated), the survival is inactive: 96%.

On to `COc1ccc(-c2nnc(SCC(=O)Nc3ccccc3C)o2)cc1OC`, for which the survival is inactive: 82%.

In the case of `COc1ccccc1CC(=O)NC1CC(C)(C)NC(C)(C)C1`, the survival is inactive: 70%.

As for `CCCOc1ccc(C(=O)NCC(c2ccc(OC)cc2)N2CCCCC2)cc1` (configuration not stated), the survival is inactive: 84%.

As for `CC(C)NC(=O)Cn1ccc2cc(S(=O)(=O)N3CCCCCC3)ccc21`, the survival is inactive: 77%.

Regarding `COc1ccc(-c2cn(-c3ccc(C)cc3)c(S(=O)(=O)CC(=O)Nc3ccccc3)n2)cc1`, the survival was inactive: 172%.

Take `Cc1cc(Br)ccc1NC(=O)c1coc(=O)c2ccccc12`: the survival is inactive: 90%.

Turning to `Cc1oc2ncn(CC(C)C)c(=O)c2c1C(=O)Nc1cccc(C(F)(F)F)c1`, the survival was active: -1%.

Regarding `O=C(Nc1ccc(Cl)c(Cl)c1)c1cc(S(=O)(=O)N2CCN(c3cccc(Cl)c3)CC2)ccc1F`, the survival is inactive: 68%.

Turning to `CC(C)c1ccccc1NC(=O)CSc1nnc(COc2ccccc2)o1`, the survival is inactive: 84%.

For the molecule `Cc1ccc(CNC(=O)CN(C)S(=O)(=O)c2ccc(Br)s2)cc1`, the survival was inactive: 124%.

For the molecule `Cc1cccc(-n2c(=O)c3c(c4cc(C)ccc4n3C)n(CC(=O)Nc3ccccc3Cl)c2=O)c1`, the survival was inactive: 80%.

On to `CCCCCn1c(=O)[nH]c2cc(C(=O)NCc3ccc(F)cc3)ccc2c1=O`, for which the survival was inactive: 89%.

As to `COCCNC(=O)c1ccc2c(c1)N(Cc1ccc(C(F)(F)F)cc1)C(=O)c1ccccc1S2`, the survival was inactive: 73%.

On to `CC(NC(=O)c1ccc(CSc2nc3ccncc3n2Cc2ccc(F)cc2)cc1)c1ccccc1` (configuration not stated), for which the survival is inactive: 78%.

For the molecule `CCOC(=O)C1CCN(C(=O)CN(c2cc(Cl)ccc2OC)S(C)(=O)=O)CC1`, the survival was inactive: 95%.

With `Cc1cccc(OCCCSc2nc(-c3ccc(C(C)(C)C)cc3)nc3cc(=O)[nH]n23)c1C`, the survival was inactive: 102%.

Regarding `c1ccc2c(c1)CNc1ccccc1C2`, the survival is inactive: 89%.

As for `CC(=O)N1CCc2cc(S(=O)(=O)CCC(=O)N3CCN(c4ccccc4F)CC3)ccc21`, the survival is inactive: 120%.

As to `COc1ccccc1Cc1nc2ccccc2nc1SCC(=O)N1CCCc2ccccc21`, the survival was inactive: 83%.

For `Cc1ccccc1-c1noc(-c2cc(C(C)C)[nH]n2)n1`, the survival was inactive: 88%.

For `Cc1ccc2[nH]c(=O)c(CN(CC3COCCO3)C(=O)Nc3ccccc3F)cc2c1` (configuration not stated), the survival is inactive: 96%.

For the molecule `Cc1cccc(-n2ncc(C(=O)Nc3ccc4c(c3)OCO4)c2C2CCN(C(=O)OC(C)(C)C)CC2)c1`, the survival was inactive: 80%.

For the molecule `COc1ccc(Cl)cc1NC(=O)c1c(NCc2cccs2)sc2c1CCCC2`, the survival was inactive: 71%.

`Oc1ccc(NCc2ccccc2OCc2ccccc2Cl)cc1`: the survival was active: 52%.

Consider `CN(C)c1ccc(NC(=O)CSC2=Nc3ccccc3C3=NC(CC(=O)NCc4ccc5c(c4)OCO5)C(=O)N23)cc1` (configuration not stated), for which the survival is inactive: 123%.

Consider `Cc1ccc(S(=O)(=O)Nc2c(C)nc3nc(C)[nH]n3c2=O)c(C)c1`, for which the survival was inactive: 117%.

As to `COc1ccc(C(=O)NCc2nnc(SCC(=O)Nc3ccc(F)cc3)n2-c2ccccc2)cc1`, the survival was inactive: 121%.

`COC(=O)c1ccc(NC(=O)CSc2nc3c(c(=O)n(C)c(=O)n3C)n2Cc2ccccc2)cc1`: the survival is inactive: 64%.

As for `Cc1ccc(NC(=O)Cn2cnc3c(oc4ccccc43)c2=O)cc1`, the survival was inactive: 81%.

With `CC(C)C1N(c2ccccc2)CCN1c1ccccc1`, the survival was inactive: 74%.

As to `Cc1ccc(C(=O)c2oc3ccccc3c2NC(=O)COc2ccc(C(C)(C)C)cc2)cc1`, the survival is inactive: 96%.

The record behind these values is PubChem BioAssay AID463173 (ICCB-Longwood Screening Facility, Harvard Medical School, 2010).
